These are yes or no findings as the source states them, for the method shown. Binding seen in cells or lysates may run through a third protein. Some results given as binding are weak or reduced against the parent protein; the word gives no strength. Sequences can lack the tags named with a protein.

This test concerns the target T1, C-terminally FLAG-tagged full-length TMEM115 (TMEM115-FL-FLAG) (human) (UniProt Q12893).
T1 sequence: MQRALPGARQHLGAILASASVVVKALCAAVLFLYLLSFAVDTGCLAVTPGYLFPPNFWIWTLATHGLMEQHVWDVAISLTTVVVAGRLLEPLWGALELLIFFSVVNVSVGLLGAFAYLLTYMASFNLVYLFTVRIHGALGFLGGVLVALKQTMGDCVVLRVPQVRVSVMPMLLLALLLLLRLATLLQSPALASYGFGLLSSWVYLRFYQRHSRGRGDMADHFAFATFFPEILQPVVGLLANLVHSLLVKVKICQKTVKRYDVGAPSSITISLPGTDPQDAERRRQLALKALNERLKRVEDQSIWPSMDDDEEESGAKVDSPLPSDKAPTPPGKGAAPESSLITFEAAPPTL
Put plainly: co-IP; FLAG immunoprecipitation from lysates of transfected HEK293 cells; lysis buffer 50 mM Tris-HCl pH 7.5, 150 mM NaCl, 1% Triton X-100; 4°C; immunoblotting.

B1: Myc–COG1 (transfected) (protein, UniProt Q8WTW3 1-980)
chain: MATAATSPALKRLDLRDPAALFETHGAEEIRGLERQVRAEIEHKKEELRQMVGERYRDLIEAADTIGQMRRCAVGLVDAVKATDQYCARLRQAGSAAPRPPRAQQPQQPSQEKFYSMAAQIKLLLEIPEKIWSSMEASQCLHATQLYLLCCHLHSLLQLDSSSSRYSPVLSRFPILIRQVAAASHFRSTILHESKMLLKCQGVSDQAVAEALCSIMLLEESSPRQALTDFLLARKATIQKLLNQPHHGAGIKAQICSLVELLATTLKQAHALFYTLPEGLLPDPALPCGLLFSTLETITGQHPAGKGTGVLQEEMKLCSWFKHLPASIVEFQPTLRTLAHPISQEYLKDTLQKWIHMCNEDIKNGITNLLMYVKSMKGLAGIRDAMWELLTNESTNHSWDVLCRRLLEKPLLFWEDMMQQLFLDRLQTLTKEGFDSISSSSKELLVSALQELESSTSNSPSNKHIHFEYNMSLFLWSESPNDLPSDAAWVSVANRGQFASSGLSMKAQAISPCVQNFCSALDSKLKVKLDDLLAYLPSDDSSLPKDVSPTQAKSSAFDRYADAGTVQEMLRTQSVACIKHIVDCIRAELQSIEEGVQGQQDALNSAKLHSVLFMARLCQSLGELCPHLKQCILGKSESSEKPAREFRALRKQGKVKTQEIIPTQAKWQEVKEVLLQQSVMGYQVWSSAVVKVLIHGFTQSLLLDDAGSVLATATSWDELEIQEEAESGSSVTSKIRLPAQPSWYVQSFLFSLCQEINRVGGHALPKVTLQEMLKSCMVQVVAAYEKLSEEKQIKKEGAFPVTQNRALQLLYDLRYLNIVLTAKGDEVKSGRSKPDSRIEKVTDHLEALIDPFDLDVFTPHLNSNLHRLVQRTSVLFGLVTGTENQLAPRSSTFNSQEPHNILPLASSQIRFGLLPLSMTSTRKAKSTRNIETKAQVVPPARSTAGDPTVPGSLFRQLVSEEDNTSAPSLFKLGWLSSMTK
Consider B1, for which the binding entry was “binds”.

B2: Myc–COG7 (transfected) (protein, UniProt P83436 1-770)
chain: MDFSKFLADDFDVKEWINAAFRAGSKEAASGKADGHAATLVMKLQLFIQEVNHAVEETSHQALQNMPKVLRDVEALKQEASFLKEQMILVKEDIKKFEQDTSQSMQVLVEIDQVKSRMQLAAESLQEADKWSTLSADIEETFKTQDIAVISAKLTGMQNSLMMLVDTPDYSEKCVHLEALKNRLEALASPQIVAAFTSQAVDQSKVFVKVFTEIDRMPQLLAYYYKCHKVQLLAAWQELCQSDLSLDRQLTGLYDALLGAWHTQIQWATQVFQKPHEVVMVLLIQTLGALMPSLPSCLSNGVERAGPEQELTRLLEFYDATAHFAKGLEMALLPHLHEHNLVKVTELVDAVYDPYKPYQLKYGDMEESNLLIQMSAVPLEHGEVIDCVQELSHSVNKLFGLASAAVDRCVRFTNGLGTCGLLSALKSLFAKYVSDFTSTLQSIRKKCKLDHIPPNSLFQEDWTAFQNSIRIIATCGELLRHCGDFEQQLANRILSTAGKYLSDSCSPRSLAGFQESILTDKKNSAKNPWQEYNYLQKDNPAEYASLMEILYTLKEKGSSNHNLLAAPRAALTRLNQQAHQLAFDSVFLRIKQQLLLISKMDSWNTAGIGETLTDELPAFSLTPLEYISNIGQYIMSLPLNLEPFVTQEDSALELALHAGKLPFPPEQGDELPELDNMADNWLGSIARATMQTYCDAILQIPELSPHSAKQLATDIDYLINVMDALGLQPSRTLQHIVTLLKTRPEDYRQVSKGLPRRLATTVATMRSVNY
Take B2: the binding result was “binds”.

B3: Myc–COG4 (transfected) (protein, UniProt Q9H9E3 1-785)
chain: MADLDSPPKLSGVQQPSEGVGGGRCSEISAELIRSLTELQELEAVYERLCGEEKVVERELDALLEQQNTIESKMVTLHRMGPNLQLIEGDAKQLAGMITFTCNLAENVSSKVRQLDLAKNRLYQAIQRADDILDLKFCMDGVQTALRSEDYEQAAAHTHRYLCLDKSVIELSRQGKEGSMIDANLKLLQEAEQRLKAIVAEKFAIATKEGDLPQVERFFKIFPLLGLHEEGLRKFSEYLCKQVASKAEENLLMVLGTDMSDRRAAVIFADTLTLLFEGIARIVETHQPIVETYYGPGRLYTLIKYLQVECDRQVEKVVDKFIKQRDYHQQFRHVQNNLMRNSTTEKIEPRELDPILTEVTLMNARSELYLRFLKKRISSDFEVGDSMASEEVKQEHQKCLDKLLNNCLLSCTMQELIGLYVTMEEYFMRETVNKAVALDTYEKGQLTSSMVDDVFYIVKKCIGRALSSSSIDCLCAMINLATTELESDFRDVLCNKLRMGFPATTFQDIQRGVTSAVNIMHSSLQQGKFDTKGIESTDEAKMSFLVTLNNVEVCSENISTLKKTLESDCTKLFSQGIGGEQAQAKFDSCLSDLAAVSNKFRDLLQEGLTELNSTAIKPQVQPWINSFFSVSHNIEEEEFNDYEANDPWVQQFILNLEQQMAEFKASLSPVIYDSLTGLMTSLVAVELEKVVLKSTFNRLGGLQFDKELRSLIAYLTTVTTWTIRDKFARLSQMATILNLERVTEILDYWGPNSGPLTWRLTPAEVRQVLALRIDFRSEDIKRLRL
For B3, the binding entry is reported as “binds”.

B4: Myc–COG2 (transfected) (protein, UniProt Q14746 1-738)
chain: MEKSRMNLPKGPDTLCFDKDEFMKEDFDVDHFVSDCRKRVQLEELRDDLELYYKLLKTAMVELINKDYADFVNLSTNLVGMDKALNQLSVPLGQLREEVLSLRSSVSEGIRAVDERMSKQEDIRKKKMCVLRLIQVIRSVEKIEKILNSQSSKETSALEASSPLLTGQILERIATEFNQLQFHAVQSKGMPLLDKVRPRIAGITAMLQQSLEGLLLEGLQTSDVDIIRHCLRTYATIDKTRDAEALVGQVLVKPYIDEVIIEQFVESHPNGLQVMYNKLLEFVPHHCRLLREVTGGAISSEKGNTVPGYDFLVNSVWPQIVQGLEEKLPSLFNPGNPDAFHEKYTISMDFVRRLERQCGSQASVKRLRAHPAYHSFNKKWNLPVYFQIRFREIAGSLEAALTDVLEDAPAESPYCLLASHRTWSSLRRCWSDEMFLPLLVHRLWRLTLQILARYSVFVNELSLRPISNESPKEIKKPLVTGSKEPSITQGNTEDQGSGPSETKPVVSISRTQLVYVVADLDKLQEQLPELLEIIKPKLEMIGFKNFSSISAALEDSQSSFSACVPSLSSKIIQDLSDSCFGFLKSALEVPRLYRRTNKEVPTTASSYVDSALKPLFQLQSGHKDKLKQAIIQQWLEGTLSESTHKYYETVSDVLNSVKKMEESLKRLKQARKTTPANPVGPSGGMSDDDKIRLQLALDVEYLGEQIQKLGLQASDIKSFSALAELVAAAKDQATAEQP
For B4, the binding entry is reported as “binds”.

B5: Myc–COG5 (transfected) (protein, UniProt Q9UP83 1-860)
chain: MGWVGGRRRDSASPPGRSRSAADDINPAPANMEGGGGSVAVAGLGARGSGAAAATVRELLQDGCYSDFLNEDFDVKTYTSQSIHQAVIAEQLAKLAQGISQLDRELHLQVVARHEDLLAQATGIESLEGVLQMMQTRIGALQGAVDRIKAKIVEPYNKIVARTAQLARLQVACDLLRRIIRILNLSKRLQGQLQGGSREITKAAQSLNELDYLSQGIDLSGIEVIENDLLFIARARLEVENQAKRLLEQGLETQNPTQVGTALQVFYNLGTLKDTITSVVDGYCATLEENINSALDIKVLTQPSQSAVRGGPGRSTMPTPGNTAALRASFWTNMEKLMDHIYAVCGQVQHLQKVLAKKRDPVSHICFIEEIVKDGQPEIFYTFWNSVTQALSSQFHMATNSSMFLKQAFEGEYPKLLRLYNDLWKRLQQYSQHIQGNFNASGTTDLYVDLQHMEDDAQDIFIPKKPDYDPEKALKDSLQPYEAAYLSKSLSRLFDPINLVFPPGGRNPPSSDELDGIIKTIASELNVAAVDTNLTLAVSKNVAKTIQLYSVKSEQLLSTQGDASQVIGPLTEGQRRNVAVVNSLYKLHQSVTKVVSSQSSFPLAAEQTIISALKAIHALMENAVQPLLTSVGDAIEAIIITMHQEDFSGSLSSSGKPDVPCSLYMKELQGFIARVMSDYFKHFECLDFVFDNTEAIAQRAVELFIRHASLIRPLGEGGKMRLAADFAQMELAVGPFCRRVSDLGKSYRMLRSFRPLLFQASEHVASSPALGDVIPFSIIIQFLFTRAPAELKSPFQRAEWSHTRFSQWLDDHPSEKDRLLLIRGALEAYVQSVRSREGKEFAPVYPIMVQLLQKAMSALQ
B5: the binding result is “binds”.

B6: ERGIC53–GFP (protein, UniProt P49257 31-510)
chain: DGVGGDPAVALPHRRFEYKYSFKGPHLVQSDGTVPFWAHAGNAIPSSDQIRVAPSLKSQRGSVWTKTKAAFENWEVEVTFRVTGRGRIGADGLAIWYAENQGLEGPVFGSADLWNGVGIFFDSFDNDGKKNNPAIVIIGNNGQIHYDHQNDGASQALASCQRDFRNKPYPVRAKITYYQNTLTVMINNGFTPDKNDYEFCAKVENMIIPAQGHFGISAATGGLADDHDVLSFLTFQLTEPGKEPPTPDKEISEKEKEKYQEEFEHFQQELDKKKEEFQKGHPDLQGQPAEEIFESVGDRELRQVFEGQNRIHLEIKQLNRQLDMILDEQRRYVSSLTEEISKRGAGMPGQHGQITQQELDTVVKTQHEILRQVNEMKNSMSETVRLVSGMQHPGSAGGVYETTQHFIDIKEHLHIVKRDIDNLVQRNMPSNEKPKCPELPPFPSCLSTVHFIIFVVVQTVLFIGYIMYRSQQEAAAKKFF
On to B6, for which the binding entry is “binds”.

B7: Myc–COG8 (transfected) (protein, UniProt Q96MW5 1-612)
chain: MATAATIPSVATATAAALGEVEDEGLLASLFRDRFPEAQWRERPDVGRYLRELSGSGLERLRREPERLAEERAQLLQQTRDLAFANYKTFIRGAECTERIHRLFGDVEASLGRLLDRLPSFQQSCRNFVKEAEEISSNRRMNSLTLNRHTEILEILEIPQLMDTCVRNSYYEEALELAAYVRRLERKYSSIPVIQGIVNEVRQSMQLMLSQLIQQLRTNIQLPACLRVIGYLRRMDVFTEAELRVKFLQARDAWLRSILTAIPNDDPYFHITKTIEASRVHLFDIITQYRAIFSDEDPLLPPAMGEHTVNESAIFHGWVLQKVSQFLQVLETDLYRGIGGHLDSLLGQCMYFGLSFSRVGADFRGQLAPVFQRVAISTFQKAIQETVEKFQEEMNSYMLISAPAILGTSNMPAAVPATQPGTLQPPMVLLDFPPLACFLNNILVAFNDLRLCCPVALAQDVTGALEDALAKVTKIILAFHRAEEAAFSSGEQELFVQFCTVFLEDLVPYLNRCLQVLFPPAQIAQTLGIPPTQLSKYGNLGHVNIGAIQEPLAFILPKRETLFTLDDQALGPELTAPAPEPPAEEPRLEPAGPACPEGGRAETQAEPPSVGP
For B7, the binding entry is recorded as “binds”.

These data come from paper PMC4077589.
